In PubChem BioAssay (NCATS):
Several values for one entry are separate records, joined by “and”; a condition that tells them apart may be missing. Equal entries are not always repeated. Inconclusive means that the source gave no clear call. Such entries were picked first, then a sample of the others. For some assays here: Potencies of inconclusive entries are doubtful fits and often do not repeat. Activity calls are given as the source filed them. Unless noted, calls follow the shape of the dose curve; as a rule, active = well fitted curve in the direction sought with a large enough effect; inconclusive = small, poorly fitted or top-dose-only effect, or another doubt; inactive = no such curve, though single readings can be large; an effect the other way counts as inactive or inconclusive.

Experiments:
[1] = qHTS of pediatric cancer cell lines to identify multiple opportunities for drug repurposing: Primary screen for A673 cells (AID 1347092); settings: A673 Ewing sarcoma viability, CellTiter-Glo ATP luminescence, 48 h; activity change, negative = cytotoxic: at 46 µM (top of the series); also: % is scaled to controls: 0 for no effect and ±100 for the full control effect; nearly all actives have a fitted effect of over 45% in size
Summary of the method: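 Cell viability of A673 measured by CellTiter-Glo ATP luminescence after 48 hours compound exposure. Dilution series spanned 0.78 nM to 46 µM (MIPE, 11-point) or 0.59 nM to 46 µM (NPC, 8-point); bortezomib 2.3 uM positive control.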

[2] = qHTS of pediatric cancer cell lines to identify multiple opportunities for drug repurposing: Primary screen for SK-N-MC cells (AID 1347093); settings: SK-N-MC viability, CellTiter-Glo luminescence, 48 h; activity change, negative = cytotoxic: at 46 µM (top of the series); also: potency is read from the fitted curve at half-maximal effect;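 as to activity change, negative = cytotoxic: plate controls were DMSO neutral control for no effect and bortezomib for full effect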
Summary of the method: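 Metabolically active cells were quantified by ATP-dependent luminescence (CellTiter-Glo, 15 min at room temperature) following 48 h treatment. Cells had been plated at 500-1,000 per well and settled for 5 h beforehand.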

[3] = qHTS of pediatric cancer cell lines to identify multiple opportunities for drug repurposing: Primary screen for Rh41 cells (AID 1347108);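 also: luminescence drop marks cytotoxic hits; nearly all actives have a fitted effect of over 70% in size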
Summary of the method: (§1)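 500-1,000 cells/well; 5 h pre-incubation 37 °C/5% CO2; compound pinned; 48 h; CellTiter-Glo, 15 min RT; luminescence. MIPE 11-pt from 0.78 nM, NPC 8-pt from 0.59 nM final. Bortezomib 2.3 µM final as positive control.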

[4] = Primary qHTS for small molecule stabilizers of the endoplasmic reticulum resident proteome: Secreted ER Calcium Modulated Protein (SERCaMP) assay (AID 1508630); settings: SH-SY5Y GLuc-SERCaMP (Gaussia luciferase released on ER calcium loss) secretion, thapsigargin, luminescence; activity change, negative = inhibition: at 38.4 µM (top of the series) unless noted; also: potency is read from the fitted curve at half-maximal effect; as to activity change, negative = inhibition: % is scaled to controls: 0 for no effect and ±100 for the full control effect
Summary of the method: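 The SH-SY5Y reporter protocol was run at 3 concentrations up to 38.3 uM (primary) or 11 concentrations (follow-up): 16 h compound, 100 nM thapsigargin for 4 h, then extracellular luciferase luminescence.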

[5] = A High-Content qHTS Against Drug Library for the Identification of Small Molecules that Inhibit DYT1 Early Onset Primary Dystonia-Associated Cell Pathology (AID 1645839; calls by dose curve)
Summary of the method: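 Induced EGFP-delE TorsinA cells are imaged after 48 h of compound treatment. Punctate fusion-protein distribution gives the %pathology value, while nuclei counts flag toxicity. Wild-type EGFP-hTOR1A cells define the normal pattern.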

[6] = molecular target: Cytochrome P450 2D6 (Homo sapiens) (UniProt P10635); assay: Cytochrome P450 family 2 subfamily D member 6 (CYP2D6) small molecule antagonists: luciferase biochemical (cell-free) qHTS assay (AID 1645840; active = well fitted curve in the direction sought with a large enough effect in the repeat runs; inconclusive = weak or mixed curves; inactive = no such curve, though single readings can be large; an effect the other way counts as inactive or inconclusive; also: potency is read from the fitted curve at half-maximal effect; nearly all actives have a fitted effect of over 55% in size)
Summary of the method: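 P450-Glo CYP2D6 system: proluciferin substrate converted by enzyme to luciferin, read by luminescence proportional to activity. Enzyme-substrate mix with compound 10 min at room temperature, then NADPH regeneration 1 h before detection reagent.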

[7] = tested on: WaGa; assay: qHTS assay to identify novel small-molecules to repurpose for Merkel cell carcinoma treatment (AID 1296009); settings: MCC and control cell lines, CellTiter-Glo viability, 72 h; series mostly up to 46 µM; also: nearly all actives have a fitted effect of over 60% in size; also: potency is read from the fitted curve at half-maximal effect
Summary of the method: (§2)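 Luminescence from CellTiter-Glo, read 10 min after addition at room temperature, reported viability following a 72 hr, 37 degree celsius treatment with NPC or MIPE compounds in titration; values normalized to plate controls.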

[8] = tested on: SKOV3; assay: Primary qHTS to identify gynecologic anti-cancer compounds using libraries of approved drugs and bioactive compounds (AID 1345084); settings: Gynecologic cancer cell panel viability, ATPlite luminescence, 48 h; series mostly up to 57.5 µM; also: nearly all actives have a fitted effect of over 55% in size; also: potency is read from the fitted curve at half-maximal effect
Summary of the method: (§3)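 Cytotoxicity screen measuring ATP content by luciferase luminescence. Each compound is applied at five concentrations for 48 h at 37 C with 5% CO2.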

[9] = qHTS of pediatric cancer cell lines to identify multiple opportunities for drug repurposing: Primary screen for SK-N-SH cells (AID 1347098); also: potency is read from the fitted curve at half-maximal effect; nearly all actives have a fitted effect of over 65% in size
Summary of the method: (§4)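 Cells (500-1,000/well) rested 5 h, then received compounds for 48 h; metabolically active cells were measured by CellTiter-Glo luminescence. Final concentrations spanned up to 46 µM (MIPE, 11-point) or 0.59 nM-46 µM (NPC, 8-point) in primary screens, 11-point in follow-ups.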

[10] = qHTS of pediatric cancer cell lines to identify multiple opportunities for drug repurposing: Primary screen for OHS-50 cells (AID 1347103); settings: OHS-50 osteosarcoma viability, CellTiter-Glo luminescence, 48 h; activity change, negative = cytotoxic: at 57.3 µM (top of the series); also: potency is read from the fitted curve at half-maximal effect; nearly all actives have a fitted effect of over 40% in size
Summary of the method: as §4

[11] = Primary qHTS for inhibitors of nuclear receptor binding SET domain protein 2 (NSD2) in an isogenic RCH-ACV NSD2 p.E1099K mutant (9B) (AID 1645876); settings: activity change, negative = viability loss: at 44.9 µM (top of the series) unless noted; also: potency is read from the fitted curve at half-maximal effect; nearly all actives have a fitted effect of over 70% in size
[12] = Primary qHTS for inhibitors of nuclear receptor binding SET domain protein 2 (NSD2) in an RCH-ACV wild type WT cells (2C) (AID 1645877); settings: activity change, negative = cell killing: at 44.9 µM (top of the series) unless noted; also: potency is read from the fitted curve at half-maximal effect; nearly all actives have a fitted effect of over 70% in size
[13] = tested on: CAOV3; assay: Primary qHTS to identify gynecologic anti-cancer compounds using libraries of approved drugs and bioactive compounds (AID 1345084); settings: Gynecologic cancer cell panel viability, ATPlite luminescence, 48 h; series mostly up to 57.5 µM; also: nearly all actives have a fitted effect of over 55% in size; also: potency is read from the fitted curve at half-maximal effect
Summary of the method: as §3

[14] = qHTS of pediatric cancer cell lines to identify multiple opportunities for drug repurposing: Primary screen for BT-37 cells (AID 1347094);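 also: plate controls were DMSO for no effect and bortezomib for full effect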
Summary of the method: as §1

[15] = qHTS of pediatric cancer cell lines to identify multiple opportunities for drug repurposing: Primary screen for Saos-2 cells (AID 1347097); settings: Saos-2 viability, CellTiter-Glo ATP luminescence, 48 h; activity change, negative = cytotoxic: at 46 µM (top of the series); also: % is scaled to controls: 0 for no effect and ±100 for the full control effect; nearly all actives have a fitted effect of over 40% in size
Summary of the method: as §1

[16] = tested on: UISO; assay: qHTS assay to identify novel small-molecules to repurpose for Merkel cell carcinoma treatment (AID 1296009); settings: MCC and control cell lines, CellTiter-Glo viability, 72 h; series mostly up to 46 µM; also: nearly all actives have a fitted effect of over 60% in size; also: potency is read from the fitted curve at half-maximal effect
Summary of the method: as §2

[17] = tested on: DIV17; assay: qHTS profiling for inhibitors of Plasmodium falciparum proliferation (AID 504749); also: nearly all actives have a fitted effect of over 60% in size; also: potency is read from the fitted curve at half-maximal effect;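 as to activity, negative = inhibition: 0% = DMSO vehicle and full inhibition = artemisinin control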; settings: P. falciparum in erythrocytes, SYBR Green DNA, 72 h; activity, negative = inhibition: at 28.7 µM (top of the series)
Summary of the method: (§5)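 Fluorescence of SYBR Green-bound parasite DNA, read at 485/535 nm, served as the growth measure. Infected erythrocytes were cultured with compound 72 h; artemisinin (0.29 uM) and DMSO wells defined the normalization range.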

[18] = tested on: W2; assay: as above; settings: P. falciparum in erythrocytes, SYBR Green DNA, 72 h; activity, negative = inhibition: at 28.7 µM (top of the series)
Summary of the method: as §5

[19] = Drug repurposing screens with cells derived from glioblastoma tumor samples (AID 1345199); settings: GBM patient neurospheres viability, ATP luminescence, 48 h; Potency: tumour line A unless noted; activity, negative = cell killing: at 46 µM (top of the series), tumour line A unless noted; also: potency is read from the fitted curve at half-maximal effect; nearly all actives have a fitted effect of over 40% in size
Summary of the method: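 Primary testing used CD133+ neurospheres from four GBM patients, seven concentrations, 48 h exposure and ATP-based viability; confirmation added three slower-growing patient lines.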
Tags tell the direction and shape of the fitted curve.

Sequence of UniProt P10635 (P10635 whole entry, looked up): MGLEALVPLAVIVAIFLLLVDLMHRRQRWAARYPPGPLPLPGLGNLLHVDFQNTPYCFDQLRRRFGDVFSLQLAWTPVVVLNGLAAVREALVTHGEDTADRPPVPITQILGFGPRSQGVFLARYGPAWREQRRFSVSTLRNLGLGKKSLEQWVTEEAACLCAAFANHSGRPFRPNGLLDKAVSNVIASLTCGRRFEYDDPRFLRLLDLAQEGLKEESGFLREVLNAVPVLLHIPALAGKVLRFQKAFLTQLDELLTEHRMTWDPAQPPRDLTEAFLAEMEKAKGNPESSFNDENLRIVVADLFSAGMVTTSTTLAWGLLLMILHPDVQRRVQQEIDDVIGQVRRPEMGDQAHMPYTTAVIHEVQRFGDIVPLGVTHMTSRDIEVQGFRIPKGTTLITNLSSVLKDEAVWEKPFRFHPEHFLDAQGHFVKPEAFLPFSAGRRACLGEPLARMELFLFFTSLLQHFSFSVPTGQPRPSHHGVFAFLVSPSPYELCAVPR

C/C(=N/NC(=O)c1ccncc1)C(=O)O
inactive: Potency [1] | Potency [2] | Potency [3] | Potency [5] | Potency [7] | Potency [8]
inconclusive: Potency [4] 10 µM [inhibitor, partial curve, poor fit] | Potency [6] 8.71 µM [inhibitor, partial curve]

CCOc1ccccc1O[C@H](c1ccccc1)[C@H]1CNCCO1
inconclusive: Potency [9] 13.7 µM [cytotoxic, partial curve, poor fit] | Potency [10] 15.5 µM [cytotoxic, partial curve] | Potency [4] 31.6 µM [inhibitor, partial curve, poor fit] and 28.2 µM [inhibitor, single point] | Potency [11] 26.6 µM [inhibitor, single point] | Potency [12] 23.7 µM [inhibitor, single point] | Potency [8] 39.8 µM [rising, single point]
inactive: Potency [7] | Potency [13]

CC(=O)NC(=O)c1ccccc1O
inactive: Potency [1] | Potency [2] | Potency [14] | Potency [15] | Potency [16] | Potency [17] | Potency [18]
inconclusive: Potency [11] 33.5 µM [inhibitor, single point] | Potency [12] 33.5 µM [inhibitor, single point] | Potency [8] 35.5 µM [rising, single point]

CN1CCN(N)CC1
inactive: Potency [4] | Potency [7] | Potency [13]

CC(C)[N+](C)(C)CC(O)COc1cccc2ccccc12 (stereo not drawn)
inactive: Potency [8]
inconclusive: activity change, negative = cytotoxic [1] -30.3% [cytotoxic] | Potency [2] 0.0033 µM [cytotoxic, full curve, poor fit] | Potency [10] 24.6 µM [cytotoxic, partial curve, poor fit] | Potency [11] 18.8 µM [inhibitor, partial curve, poor fit] | Potency [12] 16.8 µM [inhibitor, partial curve, poor fit] | Potency [7] 29.9 µM [inhibitor, single point] | Potency [19] 10 µM [inhibitor, partial curve, poor fit] | Potency [17] 6.75 µM [inhibitor, single point]
